# Data from the supplement of paper PMC8728848.
# This is one part of the list.
# B1: OGAA (protein)
# chain: MVQKESQATLEERESELSSNPAASAGASLEPPAAPAPGEDNPAGAGGAAVAGAAGGARRFLCGVVEGFYGRPWVMEQRKELFRRLQKWELNTYLYAPKDDYKHRMFWREMYSVEEAEQLMTLISAAREYEIEFIYAISPGLDITFSNPKEVSTLKRKLDQVSQFGCRSFALLFADIDHNMCAADKEVFSSFAHAQVSITNEIYQYLGEPETFLFCPTEYCGTFCYPNVSQSPYLRTVGEKLLPGIEVLWTGPKVVSKEIPVESIEEVSKIIKRAPVIWDNIHANDYDQKRLFLGPYKGRSTELIPRLKGVLTNPNCEFEANYVAIHTLATWYKSNMNGVRKDVVMTDSEDSTVSIQIKLENEGSDEDIETDVLYSPQMALKLALTEWLQEFGVPHQY
# How the values were obtained:
# Assay in all cases: glycan array binding signal (z-score within array); higher = stronger binding
# Settings in all cases: glycan notation: IUPAC condensed, linker removed
# [1] = target: Neu5Ac(a2-3)Gal(b1-3)GlcNAc6S
# Outline: (§1)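 From the Consortium for Functional Glycomics database, 3228 arrays were curated, keeping only those whose protein sequence was available. Binding is given as a within-array Z-score averaged across arrays sharing a protein sequence and across linkers. Negative Z-scores can be read as non-binding.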
# [2] = target: Neu5Ac(a2-3)Gal(b1-3)[Fuc(a1-4)]GlcNAc
# Outline: as §1
# [3] = target: Neu5Ac(a2-3)Gal(b1-3)[Fuc(a1-4)]GlcNAc(b1-3)Gal(b1-3)[Fuc(a1-4)]GlcNAc
# Outline: as §1
# [4] = target: Neu5Ac(a2-3)Gal(b1-3)[Fuc(a1-4)]GlcNAc(b1-3)Gal(b1-4)[Fuc(a1-3)]GlcNAc
# Outline: as §1
# [5] = target: Neu5Ac(a2-3)Gal(b1-3)[GlcNAc(b1-6)]GalNAc
# Outline: as §1
# [6] = target: Neu5Ac(a2-3)Gal(b1-3)[Neu5Ac(a2-6)]GalNAc
# Outline: as §1
# [7] = target: Neu5Ac(a2-3)Gal(b1-3)[Neu5Ac(a2-6)]GlcNAc(b1-3)[Fuc(a1-3)[Gal(b1-4)]GlcNAc(b1-6)]Gal(b1-4)Glc
# Outline: as §1
# [8] = target: Neu5Ac(a2-3)Gal(b1-3)]Neu5Ac(a2-3)Gal(b1-4)]GlcNAc
# Outline: as §1
# Neu5Ac(a2-3)Gal(b1-4)Glc = target: Neu5Ac(a2-3)Gal(b1-4)Glc
# Outline: as §1
# [9] = target: Neu5Ac(a2-3)Gal(b1-4)GlcNAc
# Outline: as §1
# [10] = target: Neu5Ac(a2-3)Gal(b1-4)GlcNAc(b1-2)Man
# Outline: as §1
# [11] = target: Neu5Ac(a2-3)Gal(b1-4)GlcNAc(b1-2)Man(a1-3)[GlcNAc(b1-4)][Neu5Ac(a2-3)Gal(b1-4)GlcNAc(b1-2)Man(a1-6)]Man(b1-4)GlcNAc(b1-4)GlcNAc
# Outline: as §1
# [12] = target: Neu5Ac(a2-3)Gal(b1-4)GlcNAc(b1-2)Man(a1-3)[Neu5Ac(a2-3)Gal(b1-4)GlcNAc(b1-2)Man(a1-6)]Man(b1-4)GlcNAc(b1-4)GlcNAc
# Outline: as §1
# [13] = target: Neu5Ac(a2-3)Gal(b1-4)GlcNAc(b1-2)Man(a1-3)[Neu5Ac(a2-3)Gal(b1-4)GlcNAc(b1-2)Man(a1-6)]Man(b1-4)GlcNAc(b1-4)[Fuc(a1-6)]GlcNAc
# Outline: as §1
# [14] = target: Neu5Ac(a2-3)Gal(b1-4)GlcNAc(b1-2)Man(a1-3)[Neu5Ac(a2-6)Gal(b1-4)GlcNAc(b1-2)Man(a1-6)]Man(b1-4)GlcNAc(b1-4)GlcNAc
# Outline: as §1
# [15] = target: Neu5Ac(a2-3)Gal(b1-4)GlcNAc(b1-2)[Neu5Ac(a2-3)Gal(b1-4)GlcNAc(b1-4)]Man(a1-3)[GlcNAc(b1-4)][Neu5Ac(a2-3)Gal(b1-4)GlcNAc(b1-2)[Neu5Ac(a2-3)Gal(b1-4)GlcNAc(b1-6)]Man(a1-6)]Man(b1-4)GlcNAc(b1-4)GlcNAc
# Outline: as §1
# [16] = target: Neu5Ac(a2-3)Gal(b1-4)GlcNAc(b1-2)[Neu5Ac(a2-3)Gal(b1-4)GlcNAc(b1-4)]Man(a1-3)[GlcNAc(b1-4)][Neu5Ac(a2-3)Gal(b1-4)GlcNAc(b1-4)Man(a1-6)]Man(b1-4)GlcNAc(b1-4)GlcNAc
# Outline: as §1
# [17] = target: Neu5Ac(a2-3)Gal(b1-4)GlcNAc(b1-2)[Neu5Ac(a2-3)Gal(b1-4)GlcNAc(b1-6)]Man(a1-6)[Neu5Ac(a2-3)Gal(b1-4)GlcNAc(b1-2)Man(a1-3)][GlcNAc(b1-4)]Man(b1-4)GlcNAc(b1-4)GlcNAc
# Outline: as §1
# [18] = target: Neu5Ac(a2-3)Gal(b1-4)GlcNAc(b1-3)Gal
# Outline: as §1
# [19] = target: Neu5Ac(a2-3)Gal(b1-4)GlcNAc(b1-3)Gal(b1-3)GlcNAc
# Outline: as §1
# [20] = target: Neu5Ac(a2-3)Gal(b1-4)GlcNAc(b1-3)Gal(b1-4)GlcNAc
# Outline: as §1
# [21] = target: Neu5Ac(a2-3)Gal(b1-4)GlcNAc(b1-3)Gal(b1-4)GlcNAc(b1-2)Man(a1-3)[Neu5Ac(a2-3)Gal(b1-4)GlcNAc(b1-3)Gal(b1-4)GlcNAc(b1-2)Man(a1-6)]Man(b1-4)GlcNAc(b1-4)GlcNAc
# Outline: as §1
binder,measurement,setting,value
B1,glycan array binding signal (z-score),[1],-0.085
same,glycan array binding signal (z-score),[2],-0.083
same,glycan array binding signal (z-score),[3],0.016
same,glycan array binding signal (z-score),[4],-0.081
same,glycan array binding signal (z-score),[5],-0.027
same,glycan array binding signal (z-score),[6],0.07
same,glycan array binding signal (z-score),[7],-0.063
same,glycan array binding signal (z-score),[8],-0.107
same,glycan array binding signal (z-score),Neu5Ac(a2-3)Gal(b1-4)Glc,-0.075
same,glycan array binding signal (z-score),[9],-0.055
same,glycan array binding signal (z-score),[10],0.083
same,glycan array binding signal (z-score),[11],-0.029
same,glycan array binding signal (z-score),[12],-0.095
same,glycan array binding signal (z-score),[13],-0.064
same,glycan array binding signal (z-score),[14],-0.118
same,glycan array binding signal (z-score),[15],-0.098
same,glycan array binding signal (z-score),[16],-0.06
same,glycan array binding signal (z-score),[17],-0.063
same,glycan array binding signal (z-score),[18],-0.09
same,glycan array binding signal (z-score),[19],-0.104
same,glycan array binding signal (z-score),[20],-0.046
same,glycan array binding signal (z-score),[21],-0.1
